# In ChEMBL document CHEMBL5606460, “ASAP - DENV-2 NS2B-NS3 protease fluorescence single point” (2024):
# The campaign covered roughly 2,000 compounds. About 110 (5.5%) showed an effect of 50% or more. Some of the results follow.
# Target: Genome polyprotein (dengue virus type 2) (UniProt P29990)
# [1] = Thailand/16681/1984, Concentration 25.0 uM, Number of replicates 1.0
smiles,measurement,setting,value
C[C@@H](CO)N1CC[C@H](c2c[nH]c3ccccc23)C1,inhibition,"Thailand/16681/1984, Concentration 49.5 uM, Number of replicates 2.0, Standard deviation 0.47868013456417424 %",-3.1%
same,inhibition,"Thailand/16681/1984, Concentration 99.01 uM, Number of replicates 2.0, Standard deviation 1.2496220267431397 %",-3.91%
same,inhibition,"Thailand/16681/1984, Concentration 198.0 uM, Number of replicates 2.0, Standard deviation 1.0865654793359512 %",-3.8%
O=Cc1ccc(N2CCC(C(=O)N3CCOCC3)CC2)cc1,inhibition,[1],13.3%
Cc1cn2ccc(C(=O)Nc3ccncc3C)cc2n1,inhibition,"Thailand/16681/1984, Concentration 49.5 uM, Number of replicates 2.0, Standard deviation 1.1051975895382533 %",-2.26%
same,inhibition,"Thailand/16681/1984, Concentration 99.01 uM, Number of replicates 2.0, Standard deviation 0.8986524065509779 %",-1.78%
same,inhibition,"Thailand/16681/1984, Concentration 198.0 uM, Number of replicates 2.0, Standard deviation 0.7727324588911023 %",-2.45%
O=Cc1ccc(N2CCC(C(=O)N3CCN(Cc4ccc(C(F)(F)F)cc4)CC3)CC2)cc1,inhibition,[1],12.4%
CCCCCC(=O)N[C@H](C(=O)N1CCC[C@@H](CN)C1)c1ccc(OCc2ccccc2)cc1,inhibition,"Thailand/16681/1984, Concentration 49.5 uM, Number of replicates 2.0, Standard deviation 0.4718692881385108 %",-0.055%
same,inhibition,"Thailand/16681/1984, Concentration 99.01 uM, Number of replicates 2.0, Standard deviation 0.7762171287158467 %",0.491%
same,inhibition,"Thailand/16681/1984, Concentration 198.0 uM, Number of replicates 2.0, Standard deviation 0.05826818665370504 %",2.27%
Cc1cc(CO)c2cccc(Cc3ccccc3C(=O)N[C@H](Cc3c[nH]cn3)C(=O)O)c2n1,inhibition,"Thailand/16681/1984, Concentration 49.95 uM, Number of replicates 2.0, Standard deviation 1.149843071816267 %",2.76%
same,inhibition,"Thailand/16681/1984, Concentration 99.9 uM, Number of replicates 2.0, Standard deviation 1.185775620395321 %",11.7%
CN(C)c1ccc(CNC(=O)C2CCN(c3ccc(C=O)cc3)CC2)cc1,inhibition,[1],10.9%
CC(=O)Nc1ccc(C(=O)Nc2cccc3c(CO)cc(C)nc23)cn1,inhibition,"Thailand/16681/1984, Concentration 49.95 uM, Number of replicates 2.0, Standard deviation 2.6037756556386347 %",8.34%
same,inhibition,"Thailand/16681/1984, Concentration 99.9 uM, Number of replicates 2.0, Standard deviation 1.476868730194602 %",14.3%
O=Cc1ccc(N2CCC(C(=O)NCc3cccc(Br)c3)CC2)cc1,inhibition,[1],9.39%
Oc1ccc(CN2CC[C@H](c3c[nH]c4ccccc34)C2)cn1,inhibition,"Thailand/16681/1984, Concentration 49.5 uM, Number of replicates 2.0, Standard deviation 2.2203318043751317 %",-1.96%
same,inhibition,"Thailand/16681/1984, Concentration 99.01 uM, Number of replicates 2.0, Standard deviation 2.4081803687742815 %",-1.66%
same,inhibition,"Thailand/16681/1984, Concentration 198.0 uM, Number of replicates 2.0, Standard deviation 2.584109641095512 %",-0.954%
C[C@H]1CN(C(=O)OC(C)(C)C)CCN1C(=O)C1CCN(c2ccc(C=O)cc2)CC1,inhibition,[1],12.4%
CCCCCC(=O)N[C@H](C(=O)Nc1ccc(C(N)=O)cc1)c1ccc(OCc2ccccc2)cc1,inhibition,"Thailand/16681/1984, Concentration 49.5 uM, Number of replicates 2.0, Standard deviation 0.6010644427830669 %",0.424%
same,inhibition,"Thailand/16681/1984, Concentration 99.01 uM, Number of replicates 2.0, Standard deviation 0.8411278167455505 %",0.131%
same,inhibition,"Thailand/16681/1984, Concentration 198.0 uM, Number of replicates 2.0, Standard deviation 0.2400633914962311 %",-0.732%
CCCN(C(=O)C1CCN(c2ccc(C=O)cc2)CC1)[C@@H](C)C(=O)Nc1ccccc1C,inhibition,[1],4.38%
CCN(CC)S(=O)(=O)c1ccc(NC(=O)C2CCN(c3ccc(C=O)cc3)CC2)cc1,inhibition,[1],12.2%
CN(C(=O)C1CCN(c2ccc(C=O)cc2)CC1)C(c1ccccc1)c1ccccc1,inhibition,[1],12.6%
C[C@@H](NC(=O)C1CCN(c2ccc(C=O)cc2)CC1)c1cccc(Br)c1,inhibition,[1],11.8%
CNC(=O)c1cc(Cl)ccc1NC(=O)c1ccc(Oc2ccccc2)cc1,inhibition,"Thailand/16681/1984, Concentration 49.5 uM, Number of replicates 2.0, Standard deviation 2.8470532500960037 %",3.11%
same,inhibition,"Thailand/16681/1984, Concentration 99.01 uM, Number of replicates 2.0, Standard deviation 1.2685656864496342 %",3.72%
same,inhibition,"Thailand/16681/1984, Concentration 198.0 uM, Number of replicates 2.0, Standard deviation 8.269913675746206 %",3.31%
CC(=O)N[C@@H](CCCCN)C(=O)N[C@@H](Cc1cccc2c(CO)cc(C)nc12)C(=O)O,inhibition,"Thailand/16681/1984, Concentration 49.95 uM, Number of replicates 2.0, Standard deviation 0.8674748022006504 %",-0.687%
same,inhibition,"Thailand/16681/1984, Concentration 99.9 uM, Number of replicates 2.0, Standard deviation 0.2317319710699916 %",3.21%
O=Cc1ccc(N2CCC(C(=O)Nc3ccc([N+](=O)[O-])cc3C(F)(F)F)CC2)cc1,inhibition,[1],11.1%
O=Cc1ccc(N2CCC(C(=O)N3CCS[C@H]3c3ccc([N+](=O)[O-])cc3)CC2)cc1,inhibition,[1],10.8%
O=Cc1ccc(N2CCC(C(=O)Nc3ccc(OC(F)(F)F)cc3Cl)CC2)cc1,inhibition,[1],13.6%
CCCCCC(=O)N[C@H](C(=O)N1CCC[C@@H](N)C1)c1ccc(OCc2ccccc2)cc1,inhibition,"Thailand/16681/1984, Concentration 49.5 uM, Number of replicates 2.0, Standard deviation 1.275572557867722 %",-0.123%
same,inhibition,"Thailand/16681/1984, Concentration 99.01 uM, Number of replicates 2.0, Standard deviation 1.3300520589416613 %",0.674%
same,inhibition,"Thailand/16681/1984, Concentration 198.0 uM, Number of replicates 2.0, Standard deviation 1.6287502093065211 %",2.04%
Cc1cc(CO)c2cccc(Cc3cccc(C(=O)Nc4nonc4C(N)=O)c3)c2n1,inhibition,"Thailand/16681/1984, Concentration 49.95 uM, Number of replicates 2.0, Standard deviation 1.9942580477177279 %",23.4%
same,inhibition,"Thailand/16681/1984, Concentration 99.9 uM, Number of replicates 2.0, Standard deviation 1.5142007227316114 %",73%
